Assay results as given in the supplement of paper PMC4967469.
Lines with a small IC50 respond at low doses; where the fit passes the top or lowest dose, that dose stands as a limit. AUC sums up the same curve from the lowest dose to the 256-fold higher top dose; values near 1 show little effect. For part of these data: The top dose, if marked as inferred, was derived from the fitted curves, not read from the paper.

What was measured:
Assay in all cases: Viability of human cancer cell lines after 72 h of drug (GDSC screen)
[1] = compound: COC(=O)CNC(=O)C(=O)OC [Dimethyloxalylglycine]; conditions: top dose 4000 µM; top dose inferred
Description: (§1)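 Human cancer cell lines in 384-well plates, medium with 10% serum, drug for 72 h over a 256-fold dose range (nine 2-fold or five 4-fold steps up to the top dose). Adherent lines were fixed and stained with the nucleic acid dye Syto60, suspension lines read with resazurin; signal relative to control wells, capped at 0 and 100%. One two-parameter sigmoid per drug and line, fitted in a mixed model over all curves with the slope shared within a line.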

[2] = compound: Cc1cnc(Nc2ccc(OCCN3CCCC3)cc2)nc1Nc1cccc(S(=O)(=O)NC(C)(C)C)c1 [TG101348]; conditions: top dose 10.24 µM
Description: as §1

[3] = compound: Cc1cnc(Nc2ccc(F)cc2Cl)nc1-c1c[nH]c(C(=O)N[C@H](CO)c2cccc(Cl)c2)c1 [VX-11e]; conditions: top dose 5.12 µM; top dose inferred
Description: as §1

[4] = compound: C=CCNC1=C2C[C@@H](C)C[C@H](OC)[C@H](O)[C@@H](C)/C=C(\C)[C@H](OC(N)=O)[C@@H](OC)/C=C\C=C(/C)C(=O)NC(=CC1=O)C2=O [17-AAG]; conditions: top dose 1 µM
Description: as §1

[5] = compound: CN(C)Cc1cccc(N=C(c2ccccc2)c2c(O)[nH]c3cc(C(=O)N(C)C)ccc23)c1 [BIX02189]; conditions: top dose 20 µM; top dose inferred
Description: as §1

[6] = compound: COc1cccc2cc(-c3nc([C@H]4CC[C@H](C(=O)O)CC4)n4ncnc(N)c34)[nH]c12 [OSI-027]; conditions: top dose 20 µM
Description: as §1

[7] = compound: CCc1cc(-c2n[nH]c(C)c2-c2ccc3c(c2)OCCO3)c(O)cc1O [CCT018159]; conditions: top dose 10 µM; top dose inferred
Description: as §1

[8] = compound: CS(=O)(=O)c1ccc(C(=O)Nc2ccc(Cl)c(-c3ccccn3)c2)c(Cl)c1 [Vismodegib]; conditions: top dose 10 µM; top dose inferred
Description: as §1

[9] = compound: COc1cccc2c1C(=O)c1c(O)c3c(c(O)c1C2=O)C[C@@](O)(C(=O)CO)C[C@@H]3O[C@H]1C[C@H](N)[C@H](O)[C@H](C)O1 [Doxorubicin]; conditions: top dose 1.024 µM
Description: as §1

[10] = compound: O=C(c1ccc(C(=O)N2CCC(N3CCCC3)CC2)c(Nc2ccccc2)c1)N1CCC(N2CCCC2)CC1 [UNC1215]; conditions: top dose 1 µM; top dose inferred
Description: as §1

| Cell Line | AUC [1] | IC50 [1] [µM] | AUC [2] | IC50 [2] [µM] | AUC [3] | IC50 [3] [µM] | AUC [4] | IC50 [4] [µM] | AUC [5] | IC50 [5] [µM] | AUC [6] | IC50 [6] [µM] | AUC [7] | IC50 [7] [µM] | AUC [8] | IC50 [8] [µM] | AUC [9] | IC50 [9] [µM] | AUC [10] | IC50 [10] [µM] |
| --- | --- | --- | --- | --- | --- | --- | --- | --- | --- | --- | --- | --- | --- | --- | --- | --- | --- | --- | --- | --- |
| GOTO (neuroblastoma, adherent) | 0.728 | 1230 | 0.904 | > 10.2 | 0.975 | > 5.12 | 0.773 | 0.446 | 0.93 | > 20 | 0.765 | 8.3 | 0.894 | > 10 | 0.951 | > 10 | 0.74 | 0.347 | 0.97 | > 1 |
| H4 (glioma, adherent) | 0.496 | 244 | 0.786 | 4.37 | 0.982 | > 5.12 | 0.396 | 0.0324 | 0.972 | > 20 | 0.641 | 3.06 | 0.951 | > 10 | 0.976 | > 10 | 0.508 | 0.0671 | 0.985 | > 1 |
| H2373 (mesothelioma, adherent) | 0.523 | 294 | 0.866 | > 10.2 | 0.956 | > 5.12 | 0.67 | 0.211 | 0.934 | > 20 | 0.47 | 1.02 | 0.932 | > 10 | 0.983 | > 10 | 0.728 | 0.343 | 0.98 | > 1 |
| H3255 (lung adenocarcinoma, adherent) | 0.857 | > 4000 | 0.944 | > 10.2 | 0.973 | > 5.12 | 0.648 | 0.174 | 0.973 | > 20 | 0.767 | 8.85 | 0.935 | > 10 | 0.98 | > 10 | 0.563 | 0.0985 | 0.981 | > 1 |
| HA7-RCC (kidney, adherent) | 0.884 | > 4000 | 0.856 | 9.64 | 0.957 | > 5.12 | 0.749 | 0.353 | 0.866 | > 20 | 0.703 | 4.98 | 0.977 | > 10 | 0.975 | > 10 | 0.763 | 0.404 | 0.983 | > 1 |
| HAL-01 (lymphoblastic leukaemia, suspension) | 0.381 | 122 | 0.647 | 1.55 | 0.929 | > 5.12 | 0.984 | > 1 | 0.86 | 13.7 | 0.091 | < 0.0781 | 0.713 | 2.3 | 0.929 | > 10 | 0.721 | 0.248 | 0.977 | > 1 |
| HC-1 (hairy cell leukaemia, suspension) | 0.603 | 473 | 0.585 | 1.08 | 0.908 | > 5.12 | 0.917 | > 1 | 0.818 | 10.7 | 0.397 | 0.658 | 0.877 | 9.32 | 0.985 | > 10 | 0.436 | 0.043 | 0.985 | > 1 |
| HCC1187 (breast, suspension) | 0.901 | > 4000 | 0.84 | 6.59 | 0.979 | > 5.12 | 0.986 | > 1 | 0.962 | > 20 | 0.654 | 3.26 | 0.877 | 9.23 | 0.984 | > 10 | 0.846 | 0.69 | 0.983 | > 1 |
| HCC1500 (breast, adherent) | 0.431 | 161 | 0.929 | > 10.2 | 0.982 | > 5.12 | 0.931 | > 1 | 0.983 | > 20 | 0.273 | 0.274 | 0.987 | > 10 | 0.972 | > 10 | 0.737 | 0.312 | 0.986 | > 1 |
| HCC2157 (breast, suspension) | 0.87 | > 4000 | 0.823 | 6.41 | 0.987 | > 5.12 | 0.572 | 0.0992 | 0.987 | > 20 | 0.628 | 2.87 | 0.816 | 5.87 | 0.935 | > 10 | 0.498 | 0.0633 | 0.969 | > 1 |
| HCC-44 (lung adenocarcinoma, adherent) | 0.557 | 357 | 0.841 | 6.91 | 0.874 | 4.79 | 0.27 | 0.0141 | 0.938 | > 20 | 0.576 | 2.01 | 0.909 | > 10 | 0.938 | > 10 | 0.434 | 0.0425 | 0.985 | > 1 |
| HD-MY-Z (Hodgkin lymphoma, adherent) | 0.792 | 1830 | 0.701 | 2.37 | 0.898 | > 5.12 | 0.611 | 0.127 | 0.88 | > 20 | 0.234 | 0.21 | 0.874 | 9.87 | 0.947 | > 10 | 0.72 | 0.269 | 0.983 | > 1 |
| HDLM-2 (Hodgkin lymphoma, suspension) | 0.775 | 1560 | 0.989 | > 10.2 | 0.989 | > 5.12 | 0.853 | 0.759 | 0.989 | > 20 | 0.908 | > 20 | 0.942 | > 10 | 0.965 | > 10 | 0.828 | 0.618 | 0.984 | > 1 |
| HH (T-cell leukaemia, suspension) | 0.262 | 40.8 | 0.581 | 1.15 | 0.838 | > 5.12 | 0.902 | > 1 | 0.716 | 6.35 | 0.155 | < 0.0781 | 0.923 | > 10 | 0.926 | > 10 | 0.678 | 0.24 | 0.97 | > 1 |
| HN (head and neck, adherent) | 0.829 | 2290 | 0.96 | > 10.2 | 0.989 | > 5.12 | 0.47 | 0.0519 | 0.989 | > 20 | 0.982 | > 20 | 0.831 | 5.8 | 0.933 | > 10 | 0.769 | 0.364 | 0.978 | > 1 |
| HO-1-u-1 (head and neck, adherent) | 0.447 | 180 | 0.942 | > 10.2 | 0.98 | > 5.12 | 0.407 | 0.0352 | 0.984 | > 20 | 0.688 | 4.09 | 0.902 | > 10 | 0.96 | > 10 | 0.601 | 0.12 | 0.987 | > 1 |
| HOS (osteosarcoma, adherent) | 0.617 | 494 | 0.992 | > 10.2 | 0.988 | > 5.12 | 0.778 | 0.338 | 0.992 | > 20 | 0.983 | > 20 | 0.824 | 4.68 | 0.915 | > 10 | 0.362 | 0.0286 | 0.99 | > 1 |
| HT-1376 (bladder, adherent) | 0.554 | 362 | 0.96 | > 10.2 | 0.985 | > 5.12 | 0.596 | 0.12 | 0.985 | > 20 | 0.98 | > 20 | 0.941 | > 10 | 0.985 | > 10 | 0.657 | – | 0.98 | > 1 |
| Hs633T (fibrosarcoma, adherent) | 0.416 | 154 | 0.867 | 6.57 | 0.873 | 3.45 | 0.936 | > 1 | 0.951 | > 20 | 0.288 | 0.36 | 0.858 | 5.94 | 0.968 | > 10 | 0.312 | 0.0214 | 0.991 | > 1 |
| HuCCT1 (biliary tract, adherent) | 0.476 | 213 | 0.889 | > 10.2 | 0.952 | > 5.12 | 0.737 | 0.325 | 0.925 | > 20 | 0.268 | 0.249 | 0.865 | > 10 | 0.984 | > 10 | 0.529 | 0.0777 | 0.982 | > 1 |
| HuO-3N1 (osteosarcoma, adherent) | 0.655 | 775 | 0.85 | > 10.2 | 0.979 | > 5.12 | 0.771 | 0.507 | 0.952 | > 20 | 0.829 | 18.2 | 0.891 | > 10 | 0.935 | > 10 | 0.85 | > 1.02 | 0.98 | > 1 |
| IMR-5 (neuroblastoma, adherent) | 0.533 | 303 | 0.727 | 2.5 | 0.991 | > 5.12 | 0.992 | > 1 | 0.868 | 13.6 | 0.669 | 3.39 | 0.989 | > 10 | 0.987 | > 10 | 0.399 | 0.0355 | 0.986 | > 1 |
| IPC-298 (melanoma, adherent) | 0.792 | 1770 | 0.897 | > 10.2 | 0.673 | 0.962 | 0.553 | 0.0869 | 0.922 | > 20 | 0.525 | 1.46 | 0.896 | > 10 | 0.975 | > 10 | 0.659 | 0.175 | 0.985 | > 1 |
| IST-SL1 (small cell lung carcinoma, semi-adherent) | 0.589 | 442 | 0.709 | 2.53 | 0.971 | > 5.12 | 0.911 | > 1 | 0.874 | > 20 | 0.301 | 0.338 | 0.921 | > 10 | 0.987 | > 10 | 0.804 | 0.53 | 0.972 | > 1 |
| JHH-2 (liver, adherent) | 0.645 | 650 | 0.84 | 7.8 | 0.91 | > 5.12 | 0.964 | > 1 | 0.953 | > 20 | 0.391 | 0.61 | 0.883 | > 10 | 0.965 | > 10 | 0.809 | 0.585 | 0.983 | > 1 |
| JHH-4 (liver, adherent) | 0.339 | 89.6 | 0.976 | > 10.2 | 0.939 | > 5.12 | 0.983 | > 1 | 0.893 | > 20 | 0.977 | > 20 | 0.953 | > 10 | 0.964 | > 10 | 0.742 | 0.314 | 0.977 | > 1 |
